The supplement of paper PMC4967469
Lines with a small IC50 respond at low doses; a fit beyond the top or the lowest dose is shown as a bound at that dose. AUC sums up the same curve from the lowest dose to the 256-fold higher top dose; values near 1 show little effect. For some assays here: A top dose marked as inferred was derived from the fitted curves, not read from the paper. For some assays here: Where an entry number is given, a second screen of the drug exists; the two often differ.

Experiments:
Experiment in all cases: Viability of human cancer cell lines after 72 h of drug (GDSC screen)
Cytarabine = compound: Nc1ccn([C@@H]2O[C@H](CO)[C@@H](O)[C@@H]2O)c(=O)n1 [Cytarabine]; conditions: top dose 2 µM
Description: (§1)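 Human cancer cell lines in 384-well plates, medium with 10% serum, drug for 72 h over a 256-fold dose range (nine 2-fold or five 4-fold steps up to the top dose). Adherent lines were fixed and stained with the nucleic acid dye Syto60, suspension lines read with resazurin; signal relative to control wells, capped at 0 and 100%. One two-parameter sigmoid per drug and line, fitted in a mixed model over all curves with the slope shared within a line.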

GSK269962A = compound: CCn1c(-c2nonc2N)nc2cnc(Oc3cccc(NC(=O)c4ccc(OCCN5CCOCC5)cc4)c3)cc21 [GSK269962A]; conditions: top dose 5 µM; screen: GDSC drug entry 1192; top dose inferred
Description: as §1

ABT-888 = compound: C[C@]1(c2nc3c(C(N)=O)cccc3[nH]2)CCCN1 [ABT-888]; conditions: top dose 5 µM; top dose inferred
Description: as §1

(5Z)-7-Oxozeaenol = compound: COc1cc(O)c2c(c1)/C=C/C[C@H](O)[C@H](O)C(=O)/C=C\C[C@H](C)OC2=O [(5Z)-7-Oxozeaenol]; conditions: top dose 10 µM; top dose inferred
Description: as §1

KU-55933 = compound: O=c1cc(-c2cccc3c2Sc2ccccc2S3)oc(N2CCOCC2)c1 [KU-55933]; conditions: top dose 10 µM
Description: as §1

CHIR-99021 = compound: Cc1cnc(-c2cnc(NCCNc3ccc(C#N)cn3)nc2-c2ccc(Cl)cc2Cl)[nH]1 [CHIR-99021]
Description: as §1

MPS-1-IN-1 = compound: COc1cc(N2CCC(O)CC2)ccc1Nc1cc(Nc2ccccc2S(=O)(=O)C(C)C)c2cc[nH]c2n1 [MPS-1-IN-1]; conditions: top dose 20 µM; top dose inferred
Description: as §1

Zibotentan = compound: COc1nc(C)cnc1NS(=O)(=O)c1cccnc1-c1ccc(-c2nnco2)cc1 [Zibotentan]; conditions: top dose 20 µM; top dose inferred
Description: as §1

CP466722 = compound: COc1cc2ncnc(-n3nc(-c4ccccn4)nc3N)c2cc1OC [CP466722]; conditions: top dose 16 µM; top dose inferred
Description: as §1

QL-X-138 = compound: C=CC(=O)Nc1cc(-n2c(=O)ccc3cnc4ccc(-c5cn[nH]c5)cc4c32)ccc1C [QL-X-138]; conditions: top dose 10.24 µM; top dose inferred
Description: as §1

ABT-869 = compound: Cc1ccc(F)c(NC(=O)Nc2ccc(-c3cccc4[nH]nc(N)c34)cc2)c1 [ABT-869]; conditions: top dose 1.024 µM; top dose inferred
Description: as §1

[1] = top dose 10 µM, screen: GDSC drug entry 1241, top dose inferred
[2] = top dose 2.56 µM, screen: GDSC drug entry 154

Cell Line	AUC (Cytarabine)	IC50 (Cytarabine) [µM]	AUC (GSK269962A)	IC50 (GSK269962A) [µM]	AUC (ABT-888)	IC50 (ABT-888) [µM]	AUC ((5Z)-7-Oxozeaenol)	IC50 ((5Z)-7-Oxozeaenol) [µM]	AUC (KU-55933)	IC50 (KU-55933) [µM]	AUC (CHIR-99021; [1])	IC50 (CHIR-99021; [1]) [µM]	AUC (MPS-1-IN-1)	IC50 (MPS-1-IN-1) [µM]	AUC (Zibotentan)	IC50 (Zibotentan) [µM]	AUC (CP466722)	IC50 (CP466722) [µM]	AUC (QL-X-138)	IC50 (QL-X-138) [µM]	AUC (ABT-869)	IC50 (ABT-869) [µM]	AUC (CHIR-99021; [2])	IC50 (CHIR-99021; [2]) [µM]
MHH-CALL-2 (B-cell leukaemia, suspension)	0.921	1.62	0.996	> 5	0.993	> 5	0.865	5.25	0.984	> 10	0.987	> 10												
MKN7 (stomach, adherent)	0.953	> 2	0.955	> 5	0.979	> 5	0.802	7.09	0.926	> 10	0.97	> 10												
MOLT-16 (T-cell lymphoblastic leukaemia, suspension)	0.294	0.0378	0.566	0.455	0.984	> 5	0.55	0.831	0.992	> 10	0.847	5.24												
NCC010 (kidney, adherent)	0.754	0.72	0.966	> 5	0.986	> 5	0.795	5.02	0.956	> 10	0.861	9.5												
NCI-H146 (small cell lung carcinoma, suspension)	0.958	> 2	0.979	> 5	0.988	> 5	0.937	> 10	0.981	> 10	0.995	> 10												
NCI-H508 (large intestine, semi-adherent)	0.908	> 2	0.854	> 5	0.951	> 5	0.899	> 10	0.846	> 10	0.95	> 10												
NCI-H835 (lung carcinoid, suspension)	0.991	> 2	0.975	> 5	0.989	> 5	0.875	9.02	0.985	> 10	0.99	> 10												
NCI-H1105 (small cell lung carcinoma, suspension)	0.931	> 2	0.962	> 5	0.993	> 5	0.819	4.44	0.992	> 10	0.993	> 10												
NCI-H1341 (small cell lung carcinoma, suspension)	0.988	> 2	0.909	> 5	0.992	> 5	0.706	2.14	0.967	> 10	0.827	4.94												
NCI-H2052 (mesothelioma, adherent)	0.875	> 2			0.982	> 5			0.978	> 10			0.979	> 20	0.981	> 20	0.902	> 16	0.925	> 10.2	0.966	> 1.02	0.981	> 2.56
NCI-N87 (stomach, adherent)	0.814	1.77	0.97	> 5	0.955	> 5	0.881	> 10	0.978	> 10	0.877	> 10												
PWR-1E (prostate, adherent)	0.767	0.738	0.807	2.54	0.98	> 5	0.658	1.71	0.943	> 10	0.87	9.26												
RCH-ACV (B-cell leukaemia, suspension)	0.332	0.0468	0.521	0.352	0.984	> 5	0.798	3.83	0.896	8.46	0.839	5.16												
RH-18 (rhabdomyosarcoma, adherent)	0.951	> 2	0.91	> 5	0.984	> 5	0.771	4.39	0.954	> 10	0.954	> 10					0.816	10.5						
SK-GT-2 (stomach, adherent)	0.823	1.26	0.919	> 5	0.965	> 5	0.824	6.38	0.962	> 10	0.971	> 10												
SK-MEL-31 (melanoma, adherent)	0.878	> 2	0.959	> 5	0.985	> 5	0.792	5.98	0.975	> 10	0.905	> 10												
SUP-B8 (B-cell leukaemia, suspension)	0.987	> 2	0.929	> 5	0.989	> 5	0.684	2.04	0.934	> 10	0.988	> 10												
TC-YIK (cervix, suspension)	0.862	1.35	0.629	0.672	0.991	> 5	0.738	2.67	0.973	> 10	0.938	> 10												
VMRC-LCD (lung adenocarcinoma, adherent)	0.874	1.41	0.807	2.08	0.993	> 5	0.793	3.75	0.991	> 10	0.992	> 10												
ZR-75-30 (breast, adherent)	0.859	> 2	0.942	> 5	0.983	> 5	0.899	> 10	0.975	> 10	0.975	> 10												
